Measurements as given in PubChem BioAssay AID1508623 (National Center for Advancing Translational Sciences (NCATS), 2021).
In all, about 48,000 compounds went through this assay and about 450 (0.94%) were called active. Another 19% or so got no clear call; they are omitted. Calls follow the shape of the dose curve; as a rule, active = well fitted inhibition curve with a large enough effect; inconclusive = small, poorly fitted or top-dose-only effect; inactive = no such curve, though single readings can be large or run the other way. The list shows a part of the results.

Assay: Primary qHTS for Identification of Small Molecule Inhibitors of Huntingtin Promoter Activity; also: nearly all actives have a fitted effect of over 50% in size
Settings: HEK293 HTT promoter firefly luciferase reporter (activity 0% = vehicle and -100% = no light), 24 h; series mostly up to 57.5 µM; activity change, negative = inhibition: at the top concentration
Method in brief: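 HEK293 luciferase promoter-reporter cells (2,500/well) plated 24 h, then compounds added at up to 57.5 uM final for 24 h at 37 °C. Firefly luminescence by Dual-Glo, normalized to vehicle (0%) and zero RLU (-100%).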

Activity change, negative = inhibition, inactive:
Cc1cccc2c(=O)cc(CSCC(=O)Nc3ccc(Cl)cc3)[nH]c12 -2.24%
Cc1ccc(Cn2c(=O)n(Cc3ccccc3)c(=O)c3c(C)c(C)sc32)cc1 -13.2%
Cc1ccc(CNC(=O)C(=O)NCC(c2ccco2)S(=O)(=O)c2ccc(C)cc2)cc1 (stereo not drawn) 4.03%
CC(C)(C)C(=O)Nc1nc2nc(-c3ccccc3)cc(=O)n2[nH]1 2.52%
Cc1ccc2oc(-c3cccc(NC(=O)c4ccc(N5CCC(C)CC5)c([N+](=O)[O-])c4)c3)nc2c1 -24.7%
COc1ccc(C2CC(=O)c3cc(-c4nc(-c5cccc([N+](=O)[O-])c5)cs4)c(=O)n(-c4ccc(F)cc4)c3C2)cc1 (stereo not drawn) -2.79%
CCc1cccc(C)c1NC(=O)c1cc(S(=O)(=O)N2CCC3(CC2)OCCO3)ccc1F -4.49%
C=CCn1c(=O)n([C@@H]2O[C@H](CO)[C@@H](O)[C@H]2O)c2nc(N)[nH]c(=O)c21 -1.39%
CC(=O)c1ccc(NC(=O)CSc2c(C(C)C)cnc3c2c(=O)n(C)c(=O)n3C)cc1 -7.79%
C[C@]12C=CC(=O)C=C1CC[C@@H]1[C@@H]2C(=O)C[C@@]2(C)[C@H]1CC[C@]2(O)C(=O)CO
Cc1c(-c2nnc(SCC(=O)Nc3ccc(Br)cc3)o2)nnn1-c1ccc(F)cc1 12.4%
O=C(Cn1c(=O)n(Cc2ccc(C(=O)NCc3ccc4c(c3)OCO4)cc2)c(=O)c2ccccc21)Nc1ccc(F)cc1F -13%
COC(=O)c1ccn(-c2nc(-c3ccc(Cl)cc3)cc(C(F)(F)F)n2)n1 -24.1%
CCOc1ccc(CNCCSc2nnnn2C)cc1OC -5.34%
Nc1ncnc2nc(-c3ccc(N4CCOCC4)nc3)cc(-c3cccc(Br)c3)c12 14.6%
COc1ccc(-c2nc(C)c(CCNS(=O)(=O)c3ccc(F)cc3)s2)cc1OC -19.7%
COC(=O)c1ccccc1NC(=O)c1cn2c3c(ccc(Cl)c3c1=O)OC(C)C2 (stereo not drawn) -8.81%
CCCCNC(=O)C1CCN(c2nc3ccc(C)cc3[nH]2)CC1 12.3%
CCOC(=O)c1cc(S(=O)(=O)N2CCN(c3cccc(C)c3C)CC2)[nH]n1 -13.8%
CNC(=O)c1c(NC(=O)c2nc(SCc3ccc(C)cc3)ncc2Cl)sc2c1CCCC2 -7.33%
Cc1ccc(NC(=O)Nc2cn(CC(C)C)c(=O)c3ccccc23)cc1N(C)C -24.9%
CCN(c1ccccc1C)S(=O)(=O)c1nnc(NC(=O)c2ccco2)s1 -19.2%
COc1ccccc1OCC(=O)N1CCC(c2nc3ccccc3o2)CC1 -6.86%
Cc1ccc(-n2ncc(C(=O)NC3CCCCC3)c2C2CCN(C(=O)OC(C)(C)C)CC2)cc1 6.88%
COc1ccc(CNc2nc3c(-c4cccc(F)c4)nnn3c3ccccc23)cc1 33.4%
COc1ccc(-c2c(C)nn3c(C(F)(F)F)cc(-c4ccccc4)nc23)cc1OC -1.29%
Cc1ccc(NC(=O)c2c(C)oc3c2C2=NCCN2C=N3)cc1F -24.1%
Cc1cccn2c(=O)cc(CSc3nnc(NC(=O)COc4ccccc4)s3)nc12 -7.94%
COC(=O)c1cc2sccc2n1CC(=O)Nc1ccc(OC)c(OC)c1 -21.3%
Cc1c(Cl)cccc1NC(c1ccc(F)cc1)c1nnc(-c2ccccc2)o1 (stereo not drawn) -18.8%
O=C(Cn1cccc1C(=O)c1ccccc1)NCc1ccccc1Cl 23.8%
O=C(Nc1cccnc1)c1cc(-c2ccc(Cl)cc2)on1 0.412%
O=C(c1ccc2c(c1)N(Cc1cccc(F)c1)C(=O)c1ccccc1S2)N1CCC2(CC1)OCCO2 -1.11%
Cc1ccc(-n2c(=O)c3c4c(sc3n(CC(=O)Nc3cccc(Cl)c3)c2=O)CCCCC4)cc1C -9.51%
COc1cc(C)nc(-n2nc(C)cc2OC)n1 6.77%
CS(=O)(=O)Nc1ccc([N+](=O)[O-])cc1Oc1ccccc1
Cc1cccc(C)c1OCC(=O)NC(Cc1c[nH]c2ccccc12)C(=O)O (stereo not drawn) -8.79%
Cc1ccc(S(=O)(=O)NCc2nc3nc(C)cc(C)n3n2)cc1 12.6%
Cc1ccc(C)c(CN2CCCN(CC(=O)Nc3ccc(C)c(C)c3)S2(=O)=O)c1 -21.1%
CCN(CC)CCCNC(=O)c1ccc(Cn2c(=O)[nH]c3cc(OC)c(OC)cc3c2=O)cc1 1.63%
CCOC(=O)c1c(S(=O)(=O)N2CCC(C(=O)N3CCN(c4ccccc4F)CC3)CC2)c(C)n(C)c1C -12.6%
Cn1cc(C(=O)NCc2ccccc2Cl)c(=O)c2cc(S(=O)(=O)N3CCCCCC3)ccc21 -0.408% [at 11.5 µM]
CCn1cc(C(=O)O)c(=O)c2cc(F)c(N3CCNC(C)C3)c(F)c21 (stereo not drawn)
CC(C)N(Cc1ccccc1)C(=O)Cn1ncc2c3ccccc3n(Cc3ccccc3)c2c1=O -20.2%
COc1ccc(CCNC(=O)c2cn(C)c3ccc(S(=O)(=O)N4CCOCC4)cc3c2=O)cc1OC 14.5%
CCOC(=O)c1ccc(NC(=O)CCCn2c(=O)c3cccn3c3cccnc32)cc1 -6.16%
Cc1nn(-c2ccc(Cl)cc2)c2nc(-c3cccnc3)cc(C(F)(F)F)c12 -7.01%
COc1ccc(NC(=O)C2CCN(S(=O)(=O)c3c(C)noc3/C=C/c3cccs3)CC2)cc1 -19.3%
COc1ccc(OC)c(S(=O)(=O)NCC(c2ccco2)S(=O)(=O)c2ccccc2)c1 (stereo not drawn) -15%
O=C(CSc1ccccc1)NCc1ccc2c(c1)CCN2C(=O)c1ccccc1 -1.22%
COc1cccc(-c2noc(CCCC(=O)NCc3ccco3)n2)c1 8.29%
CN(Cc1ccccc1)C(=O)CCS(=O)(=O)c1ccc2c(c1)oc(=O)n2C -7.74%
CCn1cc(S(=O)(=O)c2cccc(Cl)c2)c(=O)c2cc(F)c(N3CCN(C)CC3)cc21 -17.6%
COC(=O)c1ccccc1NC(=O)c1ccc(-c2nc(CSc3ccc(C)cc3)c(C)o2)cc1 -20.8%
COc1ccccc1N1CCN(Cc2nnc(-c3ccccc3C)o2)CC1 -8.88%
COCCCn1c(=O)c2sccc2n2c(CCCC(=O)Nc3cccc(C(F)(F)F)c3)nnc12 -15.3%
CCOC(=O)c1cccc(NC(=O)c2ccc3nc(CCc4ccccc4)oc3c2)c1 25.4%
O=C(NCCCc1nc2ccccc2n1Cc1cccc(Cl)c1)C1CCCCC1 -22.9%
CCCCOC(=O)c1ccc(NC(=O)c2csnn2)cc1 4.27%
CC1=C(C(=O)Nc2ccccc2)C(c2ccc[nH]2)n2ncnc2N1 (stereo not drawn) -3.12%
CCCOc1ccc(C(=O)Nc2ccc3oc(-c4ccc(N(C)C)cc4)nc3c2)cc1 -15%
Cc1c(Cl)cccc1NC(=O)Cn1nnc(-c2nc(-c3ccccc3)no2)c1N 8.08%
Cc1cccc(C)c1NC(=O)CSc1nc2ccccc2c2nc(CCc3c(C)n[nH]c3C)nn12 -3.72%
CCn1cc(C(=O)NCCc2ccc(C)cc2)c(=O)c2cc(S(=O)(=O)N3CCC(C)CC3)ccc21 -5.24%
CCCOc1ccc(OC(=O)c2cn(-c3ccc(OC)cc3)c(=O)c3ccccc23)cc1 -13.8%
COc1cccc(-c2nn3c(=O)cc(CN4CCN(C(=O)/C=C/c5ccccc5)CC4)nc3s2)c1 -6.35%
CCOc1ccccc1NC(=O)C1=C(C)Nc2ncnn2C1c1cccs1 (stereo not drawn) -5.99%
COc1cc(NC(=O)c2nc3ccccc3n(C)c2=O)cc(OC)c1OC 24.2%
Cc1ccc(CCNC(=O)CCS(=O)(=O)c2cc3c(cc2Cl)NC(=O)CO3)cc1 -1.12%
CC(C)NC(=O)CN1C(=O)c2cccnc2Sc2ccccc21 -7.74%
O=C(OCc1cc(=O)n2nc(C3CC3)sc2n1)c1ccccc1Cl 34.8%
COc1ccc(CNC(=O)C2=CC(c3cccc(OC)c3)=NS(=O)(=O)N2C)cc1 -19.3%
COC(=O)c1c(-c2ccc(Cl)cc2)noc1N1CCN(c2ccc(F)cc2)CC1 5.57%
Cc1ccc(-c2nc(-c3cc4cccc(OCc5ccccc5F)c4oc3=O)no2)cc1 -10.7%
COc1ccc(NC(=O)c2csnn2)cc1 61.1%
Cc1ccc(NC(=O)Cn2c(=O)n(Cc3ccc(C(=O)NCc4ccc5c(c4)OCO5)cc3)c(=O)c3ccccc32)cc1 -4.61%
CCOc1ccc(CNC(=O)CCS(=O)(=O)c2ccc3c(c2)oc(=O)n3C)cc1 -10.8%
COc1cc(C(=O)Nc2ccc(OCc3cc(=O)n4cc(C)sc4n3)cc2)cc(OC)c1OC -18.8%
O=C(NCCc1ccccc1)c1c[nH]c2ccc(S(=O)(=O)Nc3ccccc3F)cc2c1=O -20%
COc1ccc(NC(=O)Nc2nnc(N(C)C3CCCCC3)s2)c(OC)c1 -11.1%
CCOC(=O)c1sc(NC(=O)COc2ccccc2Cl)c(C(=O)OCC)c1C 10.6%
Cc1ccccc1NC(=O)CSc1nc2c(oc3ccccc32)c(=O)n1-c1ccccc1F -16.5%
CC(=O)N1CCN(c2ccc(OCc3nn(C)c(C)c3-c3cccc4c(CCCOc5cccc6ccccc56)c(C(=O)O)n(Cc5cccnc5)c34)cc2)CC1 16.6%
CC1=C(C(=O)OCC2CCCCC2)C(c2c(F)cccc2Cl)CC(=O)N1 (stereo not drawn) -31.7%
COc1cc(OC)c(NC(=O)Nc2ccccc2OCc2cc(=O)n3cc(C)ccc3n2)cc1Cl 14.7%
COc1ccc(CCNC(=O)CCc2c(C)nc3nc(C)nn3c2C)cc1OC 3.99%
COc1ccc(C)cc1NC(=O)CCS(=O)(=O)c1ccc2c(c1)CC(=O)N2C -13.9%
CCc1ccc(S(=O)(=O)c2nnn3c2nc(NC2CCCC2)c2sccc23)cc1 6.95%
COCCNC(=O)c1cc(Sc2ccc(F)cc2F)nc2ccccc12 -24.9%
COc1ccc(-n2ccn(Cc3ccc(C)cc3)c(=O)c2=O)cc1OC -12.2%
O=C(c1ccc2c(c1)N(Cc1ccc(F)cc1)C(=O)c1ccccc1S2(=O)=O)N1CCC(Cc2ccccc2)CC1 -12.7%
O=C(CSc1ccc2ccccc2n1)Nc1nsc(-c2ccc(Cl)cc2)n1 5.84%
Cc1cccc(-n2c(=O)c3c(c4cc(C)ccc4n3C)n(Cc3ccccc3F)c2=O)c1 -6.63%
